# Measured values reported in paper PMC9911399, “Two distinct binding modes provide the RNA-binding protein RbFox with extraordinary sequence specificity”.
# Numbering of substitutions follows the chain as printed; changes in the protein carry UniProt numbers. The list shows a part of the results.
# T1: RBFOX1 RRM RbFoxmut (Fox-RRM*) (Homo sapiens, UniProt Q9NWB1 109-208, R118D;E147R;N151S;E152T)
# T1 sequence: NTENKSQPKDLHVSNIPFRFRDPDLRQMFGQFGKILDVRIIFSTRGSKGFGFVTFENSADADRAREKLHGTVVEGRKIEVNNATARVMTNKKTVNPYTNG
# B1: UUGCAGA (DNA:RNA)
# RNA: GGGAGACCGGAAUUCAGAUUGUCCUUGCAGAUUAAAUCCCGUCGUAGCCACCA
# DNA 1: CAATCTGAATTCCGGTCTCCC
# DNA 2: TGGTGGCTACGACGGGATT
# B2: UACCUGG (DNA:RNA)
# RNA: B1 RNA with U26A, G27C, A29U, A31G
# DNA 1: CAATCTGAATTCCGGTCTCCC
# DNA 2: TGGTGGCTACGACGGGATT
# B3: CUAUGGG (DNA:RNA)
# RNA: B1 RNA with U25C, G27A, C28U, A29G, A31G
# DNA 1: CAATCTGAATTCCGGTCTCCC
# DNA 2: TGGTGGCTACGACGGGATT
# B4: GUAACAC (DNA:RNA)
# RNA: B1 RNA with U25G, G27A, C28A, A29C, G30A, A31C
# DNA 1: CAATCTGAATTCCGGTCTCCC
# DNA 2: TGGTGGCTACGACGGGATT
# B5: AACGUUA (DNA:RNA)
# RNA: B1 RNA with U25A, U26A, G27C, C28G, A29U, G30U
# DNA 1: CAATCTGAATTCCGGTCTCCC
# DNA 2: TGGTGGCTACGACGGGATT
# B6: AUAGCGC (DNA:RNA)
# RNA: B1 RNA with U25A, G27A, C28G, A29C, A31C
# DNA 1: CAATCTGAATTCCGGTCTCCC
# DNA 2: TGGTGGCTACGACGGGATT
# B7: UAGAAGC (DNA:RNA)
# RNA: B1 RNA with U26A, C28A, A31C
# DNA 1: CAATCTGAATTCCGGTCTCCC
# DNA 2: TGGTGGCTACGACGGGATT
# B8: CUAGCAA (DNA:RNA)
# RNA: B1 RNA with U25C, G27A, C28G, A29C, G30A
# DNA 1: CAATCTGAATTCCGGTCTCCC
# DNA 2: TGGTGGCTACGACGGGATT
# B9: CUGCACC (DNA:RNA)
# RNA: B1 RNA with U25C, G30C, A31C
# DNA 1: CAATCTGAATTCCGGTCTCCC
# DNA 2: TGGTGGCTACGACGGGATT
# B10: AGCUAAC (DNA:RNA)
# RNA: B1 RNA with U25A, U26G, G27C, C28U, G30A, A31C
# DNA 1: CAATCTGAATTCCGGTCTCCC
# DNA 2: TGGTGGCTACGACGGGATT
# B11: UGCUUAU (DNA:RNA)
# RNA: B1 RNA with U26G, G27C, C28U, A29U, G30A, A31U
# DNA 1: CAATCTGAATTCCGGTCTCCC
# DNA 2: TGGTGGCTACGACGGGATT
# B12: UGUAUAA (DNA:RNA)
# RNA: B1 RNA with U26G, G27U, C28A, A29U, G30A
# DNA 1: CAATCTGAATTCCGGTCTCCC
# DNA 2: TGGTGGCTACGACGGGATT
# B13: CGUAUCG (DNA:RNA)
# RNA: GGGAGACCGGAAUUCAGAUUGUCCCGUAUCGUUAAAUCCCGUCGUAGCCACCA
# DNA 1: CAATCTGAATTCCGGTCTCCC
# DNA 2: TGGTGGCTACGACGGGATT
# B14: CGGUGGC (DNA:RNA)
# RNA: B13 RNA with U27G, A28U, U29G, C30G, G31C
# DNA 1: CAATCTGAATTCCGGTCTCCC
# DNA 2: TGGTGGCTACGACGGGATT
# B15: GUUAAUU (DNA:RNA)
# RNA: B13 RNA with C25G, G26U, U29A, C30U, G31U
# DNA 1: CAATCTGAATTCCGGTCTCCC
# DNA 2: TGGTGGCTACGACGGGATT
# B16: ACACGCA (DNA:RNA)
# RNA: B1 RNA with U25A, U26C, G27A, A29G, G30C
# DNA 1: CAATCTGAATTCCGGTCTCCC
# DNA 2: TGGTGGCTACGACGGGATT
# B17: AUGGGAA (DNA:RNA)
# RNA: B1 RNA with U25A, C28G, A29G, G30A
# DNA 1: CAATCTGAATTCCGGTCTCCC
# DNA 2: TGGTGGCTACGACGGGATT
# B18: UAAUGUG (DNA:RNA)
# RNA: B13 RNA with C25U, G26A, U27A, A28U, U29G, C30U
# DNA 1: CAATCTGAATTCCGGTCTCCC
# DNA 2: TGGTGGCTACGACGGGATT
# B19: GCCGAGG (DNA:RNA)
# RNA: B1 RNA with U25G, U26C, G27C, C28G, A31G
# DNA 1: CAATCTGAATTCCGGTCTCCC
# DNA 2: TGGTGGCTACGACGGGATT
# B20: CACUUGG (DNA:RNA)
# RNA: B13 RNA with G26A, U27C, A28U, C30G
# DNA 1: CAATCTGAATTCCGGTCTCCC
# DNA 2: TGGTGGCTACGACGGGATT
# B21: GAUUCUG (DNA:RNA)
# RNA: B13 RNA with C25G, G26A, A28U, U29C, C30U
# DNA 1: CAATCTGAATTCCGGTCTCCC
# DNA 2: TGGTGGCTACGACGGGATT
# B22: AUAAGGG (DNA:RNA)
# RNA: B13 RNA with C25A, G26U, U27A, U29G, C30G
# DNA 1: CAATCTGAATTCCGGTCTCCC
# DNA 2: TGGTGGCTACGACGGGATT
# B23: UGUCUUC (DNA:RNA)
# RNA: B13 RNA with C25U, A28C, C30U, G31C
# DNA 1: CAATCTGAATTCCGGTCTCCC
# DNA 2: TGGTGGCTACGACGGGATT
# B24: ACAUUCA (DNA:RNA)
# RNA: B13 RNA with C25A, G26C, U27A, A28U, G31A
# DNA 1: CAATCTGAATTCCGGTCTCCC
# DNA 2: TGGTGGCTACGACGGGATT
# B25: UGUAGCU (DNA:RNA)
# RNA: B13 RNA with C25U, U29G, G31U
# DNA 1: CAATCTGAATTCCGGTCTCCC
# DNA 2: TGGTGGCTACGACGGGATT
# B26: UAACACC (DNA:RNA)
# RNA: B1 RNA with U26A, G27A, G30C, A31C
# DNA 1: CAATCTGAATTCCGGTCTCCC
# DNA 2: TGGTGGCTACGACGGGATT
# B27: GGUCGGA (DNA:RNA)
# RNA: B1 RNA with U25G, U26G, G27U, A29G
# DNA 1: CAATCTGAATTCCGGTCTCCC
# DNA 2: TGGTGGCTACGACGGGATT
# B28: GAAAGUG (DNA:RNA)
# RNA: B13 RNA with C25G, G26A, U27A, U29G, C30U
# DNA 1: CAATCTGAATTCCGGTCTCCC
# DNA 2: TGGTGGCTACGACGGGATT
# B29: CAUGGGU (DNA:RNA)
# RNA: B13 RNA with G26A, A28G, U29G, C30G, G31U
# DNA 1: CAATCTGAATTCCGGTCTCCC
# DNA 2: TGGTGGCTACGACGGGATT
# B30: CCACAUC (DNA:RNA)
# RNA: B1 RNA with U25C, U26C, G27A, G30U, A31C
# DNA 1: CAATCTGAATTCCGGTCTCCC
# DNA 2: TGGTGGCTACGACGGGATT
# B31: UGGCUCG (DNA:RNA)
# RNA: B13 RNA with C25U, U27G, A28C
# DNA 1: CAATCTGAATTCCGGTCTCCC
# DNA 2: TGGTGGCTACGACGGGATT
# Molecular target: T1, RBFOX1 RRM RbFoxmut (Fox-RRM*)
# Assay: EMSA; HiTS-Eq, 1 nM pool, 10 min; buffer printed only for the single-RNA assays: 10 mM Tris pH 7.5, 150 mM NaCl, 3.4 mM EDTA, 0.001% NP-40, 30 C
# Settings: tags: His6 N-terminal (pET28a); label: 5' 32P
# Method in brief: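 These values rest on relative association constants, computed from read-count changes of each RNA species versus the control reaction and normalised to the cognate motif. Reads came from free RNA recovered by 8% native PAGE after purified RbFox RRM (wild type or mutant) at increasing concentrations was equilibrated for 10 min in 50 µL with 1 nM of a 5′-radiolabelled pool with 7 randomized nucleotides and DNA-annealed flanks.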
row,Binder,binding signal
1,B1,0.108 KA relative to UGCAUGU
2,B2,0.0892 KA relative to UGCAUGU
3,B3,0.0576 KA relative to UGCAUGU
4,B4,0.0896 KA relative to UGCAUGU
5,B5,0.132 KA relative to UGCAUGU
6,B6,0.0951 KA relative to UGCAUGU
7,B7,0.0722 KA relative to UGCAUGU
8,B8,0.0728 KA relative to UGCAUGU
9,B9,0.141 KA relative to UGCAUGU
10,B10,0.0854 KA relative to UGCAUGU
11,B11,0.128 KA relative to UGCAUGU
12,B12,0.0646 KA relative to UGCAUGU
13,B13,0.263 KA relative to UGCAUGU
14,B14,0.0931 KA relative to UGCAUGU
15,B15,0.0844 KA relative to UGCAUGU
16,B16,0.148 KA relative to UGCAUGU

row,Binder,binding signal
1,B17,0.122 KA relative to UGCAUGU
2,B18,0.0788 KA relative to UGCAUGU
3,B19,0.0802 KA relative to UGCAUGU
4,B20,0.1 KA relative to UGCAUGU
5,B21,0.126 KA relative to UGCAUGU
6,B22,0.0543 KA relative to UGCAUGU
7,B23,0.201 KA relative to UGCAUGU
8,B24,0.0972 KA relative to UGCAUGU
9,B25,0.102 KA relative to UGCAUGU
10,B26,0.0638 KA relative to UGCAUGU
11,B27,0.0773 KA relative to UGCAUGU
12,B28,0.0907 KA relative to UGCAUGU
13,B29,0.114 KA relative to UGCAUGU
14,B30,0.0576 KA relative to UGCAUGU
15,B31,0.304 KA relative to UGCAUGU
